Laboratory results: PMC12136788
The other results are listed elsewhere or left out.

B1: chr2:216981417:216981418:+_ENSG00000079246_ENST00000392132|hu_hu|hu_hu_hu_mus_True|28_28 (ssRNA)
RNA: GGGAGUUCUACAGUCCGACGAUCCUGAUACUGGUCCUUGCCAGCAAGGGCAUUAUCAGUGCCAUCUGUGCCAUAGAGGACUAACGCAAUCUCAUCUUUGCUCUCCGCAAACACCUGUCGUUGGACAAACAUAGUCAUCACUUUCAACAGAGGAUUGAGCAUCA
B2: chr2:114709107:114709108:+_ENSG00000115091_ENST00000536059|hu_hu|FALSE|FALSE (ssRNA)
RNA: GGGAGUUCUACAGUCCGACGAUCAGAGAGGACAAUAUUCUUGUAGAGAGGACGUCUGACAUCAAUAGGACAAUUCUGAAUUACUUCAUCUACAACUUCUGAGAUAGGUUGUGUAAAGUCUGGAUUAGCAAACUCUGGAUGAAACAACAGAGGAUUGAGCAUCA
B3: chr10:85910540:85910541:+_ENSG00000165678_ENST00000372134|perfect_dup|FALSE|FALSE (ssRNA)
RNA: GGGAGUUCUACAGUCCGACGAUCUUCUGCACGUUUGAUUACUUUCUGAGUAUCAUACAGAAGGAACAUGCUGAAAAGAACUAAUCCACCAUACAUUGCCACUGAGUACAGAGUGGCACCAGCCACAGAGGUAGGGGGAAGAAACAACAGAGGAUUGAGCAUCA
B4: chrX:69798090:69798091:-_ENSMUSG00000031343_ENSMUST00000055966|mus_mus|mus_mus_mus_hu_False|58_78 (ssRNA)
RNA: GGGAGUUCUACAGUCCGACGAUCAAGUCCCCGGGUUCUUGUCGUCUUGAUUCCCCUUGGCUAGUGGUUCCAGGGAGAAUACUAAUCAGGAAAAGAAUCCCAAGGCUGGUCAUGUAACAGUGACUUGUUUGUGUGAUUAUCAUCCAACAGAGGAUUGAGCAUCA
B5: chr10:36717261:36717262:+_ENSMUSG00000019777_ENSMUST00000019911|perfect_dup|FALSE|FALSE (ssRNA)
RNA: GGGAGUUCUACAGUCCGACGAUCCUGUUUUAUCUUUUCCAUAUAUUCUGGAGUGUUCUGGUUUGUCAUGUUUGAAGGACUAAUAUGCAGUUUGAAGUCUGGUCCAAAAUACUCAAAGUAAUCAUUAUAUGGCAACUCAUUGGGCAACAGAGGAUUGAGCAUCA
B6: chr2:9570881:9570882:+_ENSG00000119203_ENST00000238112|hu_mus|hu_hu_hu_mus_False|18_88 (ssRNA)
RNA: GGGAGUUCUACAGUCCGACGAUCACUUGUCUUCUGAAGGAACCAGGGCAGAGCUCCACAGUGAUCCAAAUGGAAAUGACUGAUCAACAGAAGGUCGAUCUCAGCUGGGUCGAUAAGAUCAAUAUAAGGAAGGGCAUCCAUUCCCAACAGAGGAUUGAGCAUCA
B7: 43694062_43694182_1162_3pUTR_ENSMUSG00000078716_ENSMUST00000107866|mouse|control|control (ssRNA)
RNA: GGGAGUUCUACAGUCCGACGAUCUAACCGCACACAGAGCUGGAAGCUGAUGGUCCUGCCAGGACCACGGGAUGGCGUCUCCACACGCACAUAGACCCAGUGGCCCCAGGGGGGCAAGGCCAACUCCAGCUGGCAUACUGAGGCCAACAGAGGAUUGAGCAUCA
B8: chr6:40197388:40197389:+_ENSMUSG00000057716_ENSMUST00000061740|mus_mus|motif|central (ssRNA)
RNA: GGGAGUUCUACAGUCCGACGAUCGCCUUGUCAGUUUGGAUGGCACCUCAGUUUGGGUGCUAGCCUCUAAGAUAGAUAGCGGUUUUGGGAUUCAUGGCCUUGAAGAUCAAGAGGAAAGGGACGAGAAUGGAAAGAGUCAAGAGUCAACAGAGGAUUGAGCAUCA
B9: chr18:34657717:34657718:-_ENSMUSG00000036501_ENSMUST00000040506|mus_hu|FALSE|FALSE (ssRNA)
RNA: GGGAGUUCUACAGUCCGACGAUCUCAUUGUCUGGAUGUCCUCCCUGCUGCAGCUCAUCAAGUGGAAUUCCAAAUAUUUUGUUAGCAAGAACGGAGUUGCAGUUACUCAAGGAAGGGGAGGAGCUCUUCCUCAUAUCUUUUUUGCAACAGAGGAUUGAGCAUCA
B10: chr1:66463027:66463028:+_ENSMUSG00000015222_ENSMUST00000114013|mus_mus|mus_mus_mus_hu_True|38_38 (ssRNA)
RNA: GGGAGUUCUACAGUCCGACGAUCUUUUCUUUCAGGAGUGGAAAUUCUGCCUCUCCCGGUUUUAAAAGGCUUUUCUUUUCUAUGUUUCUCAAGAGAUGGUCUCCGAGCUUCCUUUUCAGCUUUCUCCUCUUUAGGAAUAGUUUCCAACAGAGGAUUGAGCAUCA
B11: chr7:149068622:149068623:-_ENSMUSG00000025139_ENSMUST00000001950|mus_hu|mus_mus_mus_hu_False|78_98 (ssRNA)
RNA: GGGAGUUCUACAGUCCGACGAUCGUGAGGCCUCUGAGUGAGGUUCCUGGUCUGUCCUGUCUGCAGUUUGUUAAUAUCACGGAACAUACCAUCUAGAACGUUCCAGUCCCGCCUGACACCUUCAUUCCCAAUGGAGAAGAAAUCCAACAGAGGAUUGAGCAUCA
B12: 56886060_56886180_9655_3pUTR_ENSMUSG00000055296_ENSMUST00000068792|mouse|control|control (ssRNA)
RNA: GGGAGUUCUACAGUCCGACGAUCUUUCAGUGAUGUAAGCUGAAUAAACCCUUUCCUCCCCAGCUGCUUCUUGGUCAUGAUGUUUGUGCAGGAAUAGAAACCCUGACUAAGACAGAUUGGUACCAGGAAUGGGGUAUUCCUGUGCAACAGAGGAUUGAGCAUCA
B13: chr1:220276048:220276049:+_ENSG00000067704_ENST00000302637|hu_hu|hu_hu_hu_mus_True|38_38 (ssRNA)
RNA: GGGAGUUCUACAGUCCGACGAUCGCAAAUUGCCUGGUUGGCGGGAAUUGUCCAAGGCUGGGUGGUCCAAACUAAAACGCUAACAGGGGAUGAGGCAUCUAUAAGAGACUCCAACUUCGGAGGAGGUCUCAGGAGGGGGAAUCUCAACAGAGGAUUGAGCAUCA
B14: 89108257_89109511_2190_CDS_ENSMUSG00000069539_ENSMUST00000174252|mouse|control|control (ssRNA)
RNA: GGGAGUUCUACAGUCCGACGAUCACUUAGAAGGUCCGCUCCAAUGUUGUUAAAGACCUUAUCAAUCUGCUGACUUCCAGAAUGUGCAACUUUUGUCUCCUCAGAAGUGCUCAUUUGAUUCCCUAUGUCCAAAGACCUCUGCUGCAACAGAGGAUUGAGCAUCA
B15: chr1:39494564:39494565:+_ENSG00000168653_ENST00000372967|hu_hu|hu_hu_hu_mus_True|8_18 (ssRNA)
RNA: GGGAGUUCUACAGUCCGACGAUCAUGCAUUCGCCUCAUCGUUUUGUACCGAAGCAAGCACUCUUCGAAGUCAUCGAACUCUAUCUUGCACUCCUUUUUCGCCCGGGUCCCACCGAUUCCAUGUGCACAUUCUAUCCACUCUUUCAACAGAGGAUUGAGCAUCA
B16: chr4:57314706:57314707:+_ENSG00000128050_ENST00000264221|hu_mus|hu_hu_hu_mus_True|1_58 (ssRNA)
RNA: GGGAGUUCUACAGUCCGACGAUCCAGAAUUUCAAAAAUAGCUUGUGUGGCAUGACUCAUGAUGUCCACUUCAGUCUGGCCUAUAAGAAGGCCAGCAAAACAGAAUUUUGCAGCAAUGAGUUGCUCCUCAGACCACUGUGGGUCCAACAGAGGAUUGAGCAUCA
B17: chr7:118215947:118215948:-_ENSMUSG00000005610_ENSMUST00000162415|mus_hu|motif|central (ssRNA)
RNA: GGGAGUUCUACAGUCCGACGAUCGGUCCUUGCAAUAGACUGCCUCUGCUUGAGAACUUAUGAUGUAAUUAUUGCAUGCUGCGGAUAUACUAUCUAAACAUUAAAGAUACUCCUAAAAUAUUUGAUGGUAGACUAUGAUUAAGACAACAGAGGAUUGAGCAUCA
B18: chr7:30889366:30889367:+_ENSMUSG00000049421_ENSMUST00000108200|mus_mus|FALSE|FALSE (ssRNA)
RNA: GGGAGUUCUACAGUCCGACGAUCUGUCUGUGCCCAGGGGAAAUAAUUGUUUUCUAGGUUUCCUGAAUUUGUUUUUUAGUCUAUCUCUCUACAGAAAGCUGAGACUUAACUCACACGUCUUUCAUCCUGUGUCCUUAUCUGUGUCAACAGAGGAUUGAGCAUCA
B19: chr5:52541547:52541548:-_ENSMUSG00000029169_ENSMUST00000031061|mus_hu|motif|central (ssRNA)
RNA: GGGAGUUCUACAGUCCGACGAUCUACUGAGACAGAAGAUUGUGUCUACAUAAGCACAAGUUGUAACAUUUCACAACUUCGGAAAGGAAUGUCAACAAUUACAACGAUCAUGCAUACCAUGGUCGAUAAUCACAUUUUAGAAGCCAACAGAGGAUUGAGCAUCA
B20: chr3:57561359:57561360:-_ENSG00000168374_ENST00000303436|hu_hu|FALSE|FALSE (ssRNA)
RNA: GGGAGUUCUACAGUCCGACGAUCUUUAUCUGUCAUUUCACUGAUGGCCAUAGCAUUUGGCAAAUCCUGUUUGUUUGCAAAAAGUAGCAGCACUGCAUCUCUCAAUUCAUCUACCAGAAGCAUUUUCUGCAGCUCAUCUGCUACCAACAGAGGAUUGAGCAUCA
B21: chr2:179515052:179515053:+_ENSMUSG00000000305_ENSMUST00000000314|mus_hu|mus_mus_mus_hu_False|1_108 (ssRNA)
RNA: GGGAGUUCUACAGUCCGACGAUCGCUUUCCCGCGCAGUCACCGUGAACGCCACCUGCUCGGAGGGGACCUGCAGCUCCCGGGUGGCGAAGACUGUCCCAUCUGCCCCAACUUUGAAGUCCAUGCUGUUGGUCUCAUACUGCAUCAACAGAGGAUUGAGCAUCA
B22: chr7:141438946:141438947:+_ENSG00000106028_ENST00000265304|hu_mus|hu_hu_hu_mus_True|18_28 (ssRNA)
RNA: GGGAGUUCUACAGUCCGACGAUCGACGAAAUACCUGUAACACAGGUCUUCGAAACAUGGCUUCUGUUUUUCUUACAACCUAAUCUUUAGGCUUUUCCUAAAGGAAAAACCCGAGCAGCCCAGCCACUAAAUCAAGAAACUACACAACAGAGGAUUGAGCAUCA

target: T1, UNK ZnF1-3 (human, UniProt Q9C0B0 31-174); experiment: nsRBNS (natural sequence RNA bind-n-seq); RBNS binding buffer (assumed for nsRBNS): 25 mM Tris pH 7.5, 150 mM KCl, 3 mM MgCl2, 0.01% Triton X-100, 500 ug/ml BSA, 20 U/ml SUPERase-In, 4 C; UNK is unkempt and MSI1 is Musashi-1; names of the RNAs are library labels; protein concentration not given here; high values mean tight binding
T1 sequence: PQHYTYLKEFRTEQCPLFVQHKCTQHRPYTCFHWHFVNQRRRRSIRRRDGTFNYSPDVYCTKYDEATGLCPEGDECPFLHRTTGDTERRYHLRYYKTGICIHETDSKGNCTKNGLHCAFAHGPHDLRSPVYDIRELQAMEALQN

Binder | binding signal [enrichment R]
B1 | 0.742
B2 | 0.985
B3 | 1.38
B4 | 0.579
B5 | 0.887
B6 | 1.24
B7 | 0.498
B8 | 1.43
B9 | 0.734
B10 | 0.409
B11 | 0.724
B12 | 0.846
B13 | 2.07
B14 | 0.661
B15 | 0.588
B16 | 0.694
B17 | 0.896
B18 | 0.487
B19 | 1.06
B20 | 0.674
B21 | 0.785
B22 | 0.656
